Test results from article PMC4336329 (PLoS ONE, 2015).
The whole screen tested about 310,000 compounds, of which about 14,000 (4.5%) showed an effect of 50% or more. Effects have a minus sign here. The list shows a part of the results.

molecular target: human ether-à-go-go-related gene (hERG) potassium channel (human, UniProt Q12809); assay: primary screen, population patch clamp on CHO cells stably expressing hERG
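Note: peak tail current of the secondary pulse compared with the same well before compound.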

Sequence of human ether-à-go-go-related gene (hERG) potassium channel (Q12809 whole entry, looked up): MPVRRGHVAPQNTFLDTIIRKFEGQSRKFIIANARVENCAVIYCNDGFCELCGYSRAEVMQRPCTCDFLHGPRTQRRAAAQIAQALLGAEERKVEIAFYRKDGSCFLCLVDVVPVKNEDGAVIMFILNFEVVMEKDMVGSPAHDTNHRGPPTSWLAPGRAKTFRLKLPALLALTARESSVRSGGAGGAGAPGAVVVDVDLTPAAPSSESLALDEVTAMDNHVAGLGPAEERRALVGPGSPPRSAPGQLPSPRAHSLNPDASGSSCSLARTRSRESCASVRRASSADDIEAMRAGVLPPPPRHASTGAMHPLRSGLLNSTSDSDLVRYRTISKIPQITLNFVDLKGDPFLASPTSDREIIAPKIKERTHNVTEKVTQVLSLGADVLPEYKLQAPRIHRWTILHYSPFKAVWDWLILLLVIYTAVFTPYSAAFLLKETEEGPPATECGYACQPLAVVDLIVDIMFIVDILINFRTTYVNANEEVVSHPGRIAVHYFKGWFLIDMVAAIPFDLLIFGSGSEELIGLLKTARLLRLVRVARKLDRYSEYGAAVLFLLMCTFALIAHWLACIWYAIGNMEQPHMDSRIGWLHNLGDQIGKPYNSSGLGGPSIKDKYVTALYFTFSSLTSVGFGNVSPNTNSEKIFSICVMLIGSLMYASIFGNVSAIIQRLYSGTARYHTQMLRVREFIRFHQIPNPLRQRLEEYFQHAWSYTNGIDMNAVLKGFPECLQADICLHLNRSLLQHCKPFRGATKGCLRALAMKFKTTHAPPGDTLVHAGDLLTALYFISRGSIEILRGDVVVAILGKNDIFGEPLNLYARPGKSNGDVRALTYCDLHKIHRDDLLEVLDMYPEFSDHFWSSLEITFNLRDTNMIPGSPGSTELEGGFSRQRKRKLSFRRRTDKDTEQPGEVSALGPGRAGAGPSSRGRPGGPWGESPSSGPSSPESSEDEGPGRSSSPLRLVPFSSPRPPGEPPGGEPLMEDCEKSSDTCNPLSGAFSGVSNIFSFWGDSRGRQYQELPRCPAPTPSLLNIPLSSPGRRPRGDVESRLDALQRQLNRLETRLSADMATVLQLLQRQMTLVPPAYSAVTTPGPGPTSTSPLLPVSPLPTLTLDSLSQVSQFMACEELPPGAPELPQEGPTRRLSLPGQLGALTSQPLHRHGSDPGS

Compound	hERG current change (%, negative = inhibition) at 10uM
COc1ccc2nc(SCC(=O)Nc3ccccc3OC)[nH]c2c1	4.94%
CCc1nnc(NC(=O)CCC(=O)N2CCN(c3cccc(Cl)c3)CC2)s1	-10.4%
O=C(Nc1cccc(C(F)(F)F)c1)C1CCCN(S(=O)(=O)c2cnc[nH]2)C1 (stereo not drawn)	-29.2%
COc1ccc(S(=O)(=O)Nc2ccccc2C(=O)N2CCOCC2)cc1C	-0.937%
Cc1cc(C)nc(Nc2ncc(O)n2-c2ccccc2)n1	11.1%
Cc1ccc(Cn2ccc(NC(=O)c3cc(-c4ccco4)on3)n2)cc1	-2.29%
CCOc1ccc2[nH]c3nc(SCC(=O)NCC4CCCO4)nnc3c2c1 (stereo not drawn)	5.01%
CCOC(=O)c1c(NC(=O)c2ccc(Cl)cc2)csc1C	-0.689%
C#CC[N+](C)(C)CC#Cc1ccc(C)cc1.[Br-]	6.33%
COc1cc2c(cc1NC(=O)CSc1ccc(Cl)cc1)oc1ccccc12	-4.45%
CCOC(=O)CN(C)Cc1c[nH]c2ccccc12	9.02%
CN(Cc1ccsc1)C(=O)CCc1nnc(CCCc2ccccc2)o1	-14.4%
CC1C(=O)N2CCCc3cc(NC(=O)c4ccccc4C(F)(F)F)cc1c32 (stereo not drawn)	-0.754%
CCOC(=O)c1c(C)n(C)c2cc(Br)c(O)c(O)c12	8.12%
CCCc1nnc(NC(=O)CCC(=O)N2CCN(Cc3ccccc3)CC2)s1	-6.65%
Cc1cc(C(=O)N/N=C/c2ccccc2[N+](=O)[O-])c(C)o1	27.1%
O=C(NCCN1CCOCC1)c1ccc(N2CCCC2)c([N+](=O)[O-])c1	-16.1%
N/C(=N\OC(=O)c1ccccc1)c1ccccn1	12.9%
O=C(O)CSc1nnc2c(n1)[nH]c1ccccc12	-1.12%
O=C(CNS(=O)(=O)c1ccc(C(=O)N2CCOCC2)cc1)N1CCOCC1	-1.35%
Cc1ccccc1CSCCNC(=O)CN(c1ccc2c(c1)OCO2)S(C)(=O)=O	-30.7%
O=C(CCSc1nnc(-c2ccncc2)o1)Nc1ccc(Cl)cc1	-34%
CCOC(=O)c1cc(-c2cccs2)nn1CCC#N	-1.57%

Compound	hERG current change (%, negative = inhibition) at 10uM
O=C(O)C1C2C=CC(C2)C1C(=O)OCC1CCCO1 (stereo not drawn)	-15.9%
O=c1cc(-c2ccc(F)cc2)[nH][nH]1	15%
CC1Oc2ccccc2N(CC(=O)Nc2ccc(F)cc2)C1=O (stereo not drawn)	10.5%
N#CC1(Cc2ccccc2Cl)c2ccccc2C=CN1C(=O)c1ccccc1 (stereo not drawn)	10.3%
O=C(COC(=O)C1(c2ccc(F)cc2)CCCC1)N1CCc2ccccc21	6.43%
CCOC(=O)c1ccc(NC(=S)N(CCCN2CCCCC2)Cc2ccco2)cc1	-72.7%
CN(CC(=O)Nc1ccc([N+](=O)[O-])cc1Br)Cc1c(F)cccc1Cl	30.1%
N=c1nc(N2CCCCC2)cc(N)n1O	0.243%
CCC(C)n1c(-c2ccco2)nc2nc3ccccc3nc21 (stereo not drawn)	-3.86%
CC(C)CCN(C(=O)C1CCCC1)c1c(N)n(Cc2ccccc2)c(=O)[nH]c1=O	13.6%
NC(=O)c1oc2ccccc2c1NC(=O)C1COc2ccccc2O1 (stereo not drawn)	23.5%
O=C(Cn1c2ccccc2c2nc3n(c(=O)c21)CCS3)Nc1ccccc1C(F)(F)F	15.1%
CCCn1nnc(NC(=O)COc2ccc(C3CCCCC3)cc2)n1	-31.1%
O=C(NCC1CCCO1)c1ccc(S(=O)(=O)N2CCCCC2)cc1 (stereo not drawn)	-0.0118%
COc1ccc(C(c2nnnn2Cc2ccccc2)N2CCN(C(=O)c3ccco3)CC2)cc1OC.Cl (stereo not drawn)	-19.9%
CC1N(C)c2cccc3cccc(c23)N1C	-3.85%
CCOC(=O)C1=C(O)C(=O)N(c2ccc(S(N)(=O)=O)cc2)C1c1ccccc1 (stereo not drawn)	7.92%
Cc1cc(NC(=O)CN2C(=O)CC(c3ccco3)Sc3ccccc32)no1 (stereo not drawn)	-61.8%
COc1ccc(Nc2cc(C)nc(N3CCN(C(=O)c4ccc5c(c4)OCO5)CC3)n2)cc1	7.63%
O=[N+]([O-])c1ccccc1Oc1ccc(Cl)c2cccnc12	10.4%
CNC(=S)Nc1ccc(Nc2ccccc2)cc1	5.02%
O=C(Nc1ccc(S(=O)(=O)N2CCOCC2)cc1)c1ccccc1Br	-6.72%
Cc1ccc(OCC(=O)N2CCN(c3ccc([N+](=O)[O-])c(N4CCOCC4)c3)CC2)cc1	-71.4%

Compound	hERG current change (%, negative = inhibition) at 10uM
CCOC(=O)N(C)OC(=O)Nc1ccc(Cl)c(Cl)c1	-7.36%
CCn1c(COc2cccc(OC)c2)nnc1SCC(=O)Nc1cccc(OC)c1	-41.1%
O=C(O)c1ccc(NS(=O)(=O)c2ccc(NC(=O)c3ccccc3Cl)cc2)cc1	19%
O=C1Nc2cccnc2N(C(=O)CCl)c2ccccc21	8.63%
O=C(Cn1cnc2ccccc2c1=O)NCc1ccco1	13.7%
Cc1cc(SCC(=O)Nc2cccc(S(=O)(=O)NC3=NCCCCC3)c2)c(C)cc1Br	1.54%
CSc1nc2c(cc1C#N)C(=O)CC(C)(C)C2	-13.8%
CC(O)c1nc2ccccc2n1CCOc1ccccc1 (stereo not drawn)	5.97%
O=C1/C(=C/Nc2cccc([N+](=O)[O-])c2)CCc2ccccc21	-3.67%
COc1ccc(NC(=O)CSc2nnc(CNC(=O)c3cccs3)o2)c(OC)c1	14.3%
CCC(=O)NC(c1ccc([N+](=O)[O-])cc1)c1c(O)ccc2ccccc12 (stereo not drawn)	-17.9%
Cc1cc(C)n(CCNC(=O)CC2C(=O)NCCN2CC2CCCCC2)n1 (stereo not drawn)	1.14%
Cc1ccccc1Cn1nc(C)c(NC(=O)C(F)(F)F)c1C	-1.86%
Oc1ccc(C(=S)N2CCN(c3cccc(Cl)c3)CC2)cc1	12%
Cc1cc(C(=O)Nc2sc(C)c(C)c2C#N)c(C)o1	20.6%
CCc1ccc(NC(=O)C(=O)NCCN2CCN(S(C)(=O)=O)CC2)cc1	20.5%
COc1ccc(CCC(=O)Nc2nnc(C(F)(F)F)s2)cc1	0.0181%
CCOC(=O)c1cc(OC(=O)c2cccs2)n(-c2ccccc2)n1	6.99%
CCOC(=O)C1CCN(C(=O)CC2C(=O)N(Cc3ccccc3)C(C)c3nc4ccccc4n32)CC1 (stereo not drawn)	-13%
CSc1nsc(SCC(=O)Nc2ccccc2)n1	-1.54%
O=C(Nc1nnc(-c2ccncc2)o1)c1ccc(Br)s1	8.03%
COC(=O)[C@@H]1CC[C@H](C)[C@@H](c2ccc(C)cc2)N1C(=O)c1ccc(/C=N/O[C@H](C)c2cn([C@@H]3COC[C@H]3O)nn2)cc1	-9.9%
COc1ccc(CNCCC(c2ccc(OC(C)C)cc2)C(C)C)cc1OC (stereo not drawn)	-74.5%

Compound	hERG current change (%, negative = inhibition) at 10uM
Cc1nnc(NC(=O)CSc2nccn2-c2ccc(F)cc2)s1	-5.7%
Cc1nn(C(C)C(=O)NCCCN2CCCCCC2)c(=O)c2c1sc1ccccc12 (stereo not drawn)	-28.1%
O=C(/C=C/c1ccccc1[N+](=O)[O-])NCCCN1CCCC1=O	11.7%
Cc1ccccc1-c1nnc(SCc2ccccc2F)o1	-9.35%
CN1CCN(C(=O)/C(=C\c2ccc3c(c2)OCO3)NC(=O)c2cccs2)CC1	-76.8%
CC1=C(C(=O)OCC2CCCO2)C(c2cccc(C(F)(F)F)c2)C2=C(CC(c3ccco3)CC2=O)N1 (stereo not drawn)	6.09%
CCCCn1nc(C(=O)N(C)C2CCCCC2)c2ccccc2c1=O	-43.1%
CC(=O)N1CCN(c2nc3cc4c(cc3nc2NS(=O)(=O)c2ccccc2)OCCO4)CC1	5.41%
Cc1ccc(NC(=O)Cn2nc(C)c3ccccc3c2=O)c(C)c1	10.2%
CSc1cccc(NC(=O)c2cnn3ccccc23)c1	-26.1%
CCC1(C)Cc2c(sc3c2c(=O)n(-c2ccccc2)c(=O)n3C)CO1 (stereo not drawn)	5.26%
CN1CCN(S(=O)(=O)c2ccc(NC(=O)Cc3cccs3)cc2)CC1	-11.4%
CCOC(=O)N1CCN(C(=O)c2cccn3c(=O)c4cc(Br)ccc4nc23)CC1	-68.2%
NC(=O)C1CCN(C(=O)c2cc3ccccc3cc2O)CC1	-1.13%
O=C(CSc1ccccc1)Nc1ccncc1	6.02%
CCCCCCN=C(C)c1ccccc1O	20.2%
CC(C)CC(c1nnnn1C(C)(C)C)N1CCN(Cc2ccccc2)CC1.Cl (stereo not drawn)	-30.1%
CC(C)CCNC(=O)c1cccc(C(=O)NCCC(C)C)c1	14.5%
CCOc1ccc(S(=O)(=O)N2CCCCC2)cc1NC(=O)CN1C(=O)NC(CC)(c2ccccc2)C1=O (stereo not drawn)	-15%
O=C(NCC1CCCO1)c1nn2cccnc2c1Cl (stereo not drawn)	21.3%
CNC(=O)c1c(C)nc(SCC(=O)NCc2ccc(OC)cc2)c(C#N)c1-c1ccco1	-15.1%
